Reference: the supplement of paper PMC4967469

Assays:
Assay in all cases: Viability of human cancer cell lines after 72 h of drug (GDSC screen)
JNJ-26854165 = compound: c1ccc2c(CCNc3ccc(Nc4ccncc4)cc3)c[nH]c2c1 [JNJ-26854165]; conditions: top dose 10 µM
Protocol: (§1)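 Human cancer cell lines in 384-well plates, medium with 10% serum, drug for 72 h over a 256-fold dose range (nine 2-fold or five 4-fold steps up to the top dose). Adherent lines were fixed and stained with the nucleic acid dye Syto60, suspension lines read with resazurin; signal relative to control wells, capped at 0 and 100%. One two-parameter sigmoid per drug and line, fitted in a mixed model over all curves with the slope shared within a line.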

JQ1 = compound: Cc1sc2c(c1C)C(c1ccc(Cl)cc1)=N[C@@H](CC(=O)OC(C)(C)C)c1nnc(C)n1-2 [JQ1]
Protocol: as §1

OSI-906 = compound: C[C@]1(O)C[C@@H](c2nc(-c3ccc4ccc(-c5ccccc5)nc4c3)c3c(N)nccn32)C1 [OSI-906]; conditions: top dose 2.56 µM; top dose inferred
Protocol: as §1

AMG-706 = compound: CC1(C)CNc2cc(NC(=O)c3cccnc3NCc3ccncc3)ccc21 [AMG-706]; conditions: top dose 2 µM; top dose inferred
Protocol: as §1

YM155 = compound: COCC[n+]1c2c(n(Cc3cnccn3)c1C)C(=O)c1ccccc1C2=O [YM155]; conditions: top dose 5.12 µM
Protocol: as §1

NVP-TAE684 = compound: COc1cc(N2CCC(N3CCN(C)CC3)CC2)ccc1Nc1ncc(Cl)c(Nc2ccccc2S(=O)(=O)C(C)C)n1 [NVP-TAE684]; conditions: top dose 2 µM
Protocol: as §1

SB-715992 = compound: Cc1ccc(C(=O)N(CCCN)[C@@H](c2nc3cc(Cl)ccc3c(=O)n2Cc2ccccc2)C(C)C)cc1 [SB-715992]; conditions: top dose 0.128 µM; top dose inferred
Protocol: as §1

FTI-277 = compound: COC(=O)[C@H](CCSC)NC(=O)c1ccc(NC[C@@H](N)CS)cc1-c1ccccc1 [FTI-277]; conditions: top dose 1.024 µM; top dose inferred
Protocol: as §1

JNK Inhibitor VIII = compound: CCOc1nc(NC(=O)Cc2cc(OC)ccc2OC)cc(N)c1C#N [JNK Inhibitor VIII]; conditions: top dose 10 µM; top dose inferred
Protocol: as §1

NSC-207895 = compound: CN1CCN(c2ccc([N+](=O)[O-])c3no[n+]([O-])c23)CC1 [NSC-207895]; conditions: top dose 20 µM; top dose inferred
Protocol: as §1

Docetaxel = compound: CC(=O)O[C@@]12CO[C@@H]1C[C@H](O)[C@@]1(C)C(=O)[C@H](O)C3=C(C)[C@@H](OC(=O)[C@H](O)[C@@H](NC(=O)OC(C)(C)C)c4ccccc4)C[C@@](O)([C@@H](OC(=O)c4ccccc4)[C@H]21)C3(C)C [Docetaxel]; conditions: top dose 0.0125 µM
Protocol: as §1

CGP-60474 = compound: OCCCNc1cc(-c2ccnc(Nc3cccc(Cl)c3)n2)ccn1 [CGP-60474]; conditions: top dose 0.256 µM; top dose inferred
Protocol: as §1

Belinostat = compound: O=C(/C=C/c1cccc(S(=O)(=O)Nc2ccccc2)c1)NO [Belinostat]; conditions: top dose 20 µM; top dose inferred
Protocol: as §1

Cyclopamine = compound: CC1=C2C[C@H]3[C@@H](CC=C4C[C@@H](O)CC[C@@]43C)[C@@H]2CC[C@]12O[C@@H]1C[C@H](C)CN[C@H]1[C@H]2C [Cyclopamine]; conditions: top dose 16 µM; top dose inferred
Protocol: as §1

[1] = top dose 1 µM, screen: GDSC drug entry 1218, top dose inferred
[2] = top dose 2.56 µM, screen: GDSC drug entry 163

MONO-MAC-6 (acute myeloid leukaemia, suspension)
AUC (JNJ-26854165): 0.843 | IC50 (JNJ-26854165): 7.68 µM | AUC (JQ1; [1]): 0.813 | IC50 (JQ1; [1]): 0.581 µM | AUC (JQ1; [2]): 0.8 | IC50 (JQ1; [2]): 1.32 µM | AUC (OSI-906): 0.944 | IC50 (OSI-906): > 2.56 µM | AUC (AMG-706): 0.971 | IC50 (AMG-706): > 2 µM | AUC (YM155): 0.044 | IC50 (YM155): < 0.02 µM | AUC (NVP-TAE684): 0.637 | IC50 (NVP-TAE684): 0.307 µM | AUC (SB-715992): 0.654 | IC50 (SB-715992): 0.022 µM | AUC (FTI-277): 0.967 | IC50 (FTI-277): > 1.02 µM | AUC (JNK Inhibitor VIII): 0.982 | IC50 (JNK Inhibitor VIII): > 10 µM | AUC (NSC-207895): 0.687 | IC50 (NSC-207895): 4.31 µM | AUC (Docetaxel): 0.885 | IC50 (Docetaxel): > 0.0125 µM | AUC (CGP-60474): 0.735 | IC50 (CGP-60474): 0.0783 µM | AUC (Belinostat): 0.384 | IC50 (Belinostat): 0.589 µM | AUC (Cyclopamine): 0.975 | IC50 (Cyclopamine): > 16 µM

SF126 (glioma, adherent)
AUC (JNJ-26854165): 0.912 | IC50 (JNJ-26854165): > 10 µM | AUC (JQ1; [1]): 0.984 | IC50 (JQ1; [1]): > 1 µM | AUC (JQ1; [2]): 0.839 | IC50 (JQ1; [2]): 1.88 µM | AUC (OSI-906): 0.949 | IC50 (OSI-906): > 2.56 µM | AUC (AMG-706): 0.903 | IC50 (AMG-706): > 2 µM | AUC (YM155): 0.314 | IC50 (YM155): 0.0935 µM | AUC (NVP-TAE684): 0.78 | IC50 (NVP-TAE684): 0.869 µM | AUC (SB-715992): 0.895 | IC50 (SB-715992): > 0.128 µM | AUC (FTI-277): 0.96 | IC50 (FTI-277): > 1.02 µM | AUC (JNK Inhibitor VIII): 0.974 | IC50 (JNK Inhibitor VIII): > 10 µM | AUC (NSC-207895): 0.982 | IC50 (NSC-207895): > 20 µM | AUC (Docetaxel): 0.852 | IC50 (Docetaxel): 0.0105 µM | AUC (CGP-60474): 0.744 | IC50 (CGP-60474): 0.0835 µM | AUC (Belinostat): 0.417 | IC50 (Belinostat): 0.729 µM | AUC (Cyclopamine): 0.986 | IC50 (Cyclopamine): > 16 µM

SNU-C1 (large intestine, suspension)
AUC (JNJ-26854165): 0.912 | IC50 (JNJ-26854165): > 10 µM | AUC (JQ1; [1]): 0.852 | IC50 (JQ1; [1]): > 1 µM | AUC (JQ1; [2]): 0.766 | IC50 (JQ1; [2]): 1.41 µM | AUC (OSI-906): 0.72 | IC50 (OSI-906): 0.915 µM | AUC (AMG-706): 0.979 | IC50 (AMG-706): > 2 µM | AUC (YM155): 0.68 | IC50 (YM155): 1.29 µM | AUC (NVP-TAE684): 0.564 | IC50 (NVP-TAE684): 0.203 µM | AUC (SB-715992): 0.947 | IC50 (SB-715992): > 0.128 µM | AUC (FTI-277): 0.979 | IC50 (FTI-277): > 1.02 µM | AUC (JNK Inhibitor VIII): 0.978 | IC50 (JNK Inhibitor VIII): > 10 µM | AUC (NSC-207895): 0.98 | IC50 (NSC-207895): > 20 µM | AUC (Docetaxel): 0.931 | IC50 (Docetaxel): > 0.0125 µM | AUC (CGP-60474): 0.906 | IC50 (CGP-60474): > 0.256 µM | AUC (Belinostat): 0.566 | IC50 (Belinostat): 2.06 µM | AUC (Cyclopamine): 0.98 | IC50 (Cyclopamine): > 16 µM

CMK (acute myeloid leukaemia, suspension)
AUC (JNJ-26854165): 0.964 | IC50 (JNJ-26854165): > 10 µM | AUC (JQ1; [1]): 0.715 | IC50 (JQ1; [1]): 0.226 µM | AUC (JQ1; [2]): 0.446 | IC50 (JQ1; [2]): 0.117 µM | AUC (OSI-906): 0.736 | IC50 (OSI-906): 0.662 µM | AUC (AMG-706): 0.99 | IC50 (AMG-706): > 2 µM | AUC (YM155): 0.111 | IC50 (YM155): 0.024 µM | AUC (NVP-TAE684): 0.62 | IC50 (NVP-TAE684): 0.252 µM | AUC (SB-715992): 0.714 | IC50 (SB-715992): 0.0288 µM | AUC (FTI-277): 0.991 | IC50 (FTI-277): > 1.02 µM | AUC (JNK Inhibitor VIII): 0.98 | IC50 (JNK Inhibitor VIII): > 10 µM | AUC (NSC-207895): 0.832 | IC50 (NSC-207895): 10.2 µM | AUC (Docetaxel): 0.96 | IC50 (Docetaxel): > 0.0125 µM | AUC (CGP-60474): 0.83 | IC50 (CGP-60474): 0.128 µM | AUC (Belinostat): 0.112 | IC50 (Belinostat): 0.0944 µM | AUC (Cyclopamine): 0.935 | IC50 (Cyclopamine): > 16 µM

By IC50 is meant the dose at which the fit gives 50% viability; a limit (>, <) means that the fit lies beyond the doses tested. AUC, from the same fit, is the share of area under the viability curve across the 256-fold dose range; values near 1 show little effect. For part of these data: Any top dose called inferred comes from the curve model; the source does not state it. For part of these data: An entry number marks a drug with two screens in the source, which often give different values.
